Laboratory results as given in the supplement of paper PMC5919970.
Where a name gives a salt, the structure may show the parent alone. In all, about 2,000 compounds were measured (“fractional viability relative to vehicle”: median about 0.92, lowest 2% from about 0.11 on). This is one part of the list.

System: TYKNU
Assay: fractional viability relative to vehicle; TYKNU is a high-grade serous ovarian cancer line; higher = less growth inhibition
Settings: 72 h, genotype: OPA1 knockout (sgOPA1 #2)
Outline: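 TYKNU control cells or lentiCRISPRv2 knockout derivatives were plated at 500 cells per well in duplicate into drug-stamped 384-well plates holding a ~2100-compound library at 2 or 10 μM. Culture was in RPMI 1640 with 10% FBS at 37 °C in 5% CO2, with 72 h of drug treatment. Viability was measured by Cell Titer Glo luminescence, and the averaged duplicate treatment wells were normalised to duplicate control wells at the same plate position.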

## c1ccc(-c2ccc(C(c3ccccc3)n3ccnc3)cc2)cc1 (stereo not drawn) [Bifonazole]
2uM
  fractional viability: 0.927
10uM
  fractional viability: 0.935

## Oc1c(Cl)cc(Cl)c2cccnc12 [Chloroxine]
2uM
  fractional viability: 1.02
10uM
  fractional viability: 0.406

## COc1cc(Nc2c(C#N)cnc3cc(OCCCN4CCN(C)CC4)c(OC)cc23)c(Cl)cc1Cl [Bosutinib (SKI-606)]
2uM
  fractional viability: 0.995
10uM
  fractional viability: 0.284

## CCCCc1oc2ccc(NS(C)(=O)=O)cc2c1C(=O)c1ccc(OCCCN(CCCC)CCCC)cc1 [Dronedarone HCl]
2uM
  fractional viability: 0.835
10uM
  fractional viability: 0.106

## CCC1(c2ccccc2)C(=O)NCNC1=O [Primidone]
2uM
  fractional viability: 0.969
10uM
  fractional viability: 0.974

## Cc1cc(F)c(Nc2ncnc3cc(OCc4ccccc4)ccc23)cc1O
2uM
  fractional viability: 1.35
10uM
  fractional viability: 1.43

## Cn1cncc1[C@@](N)(c1ccc(Cl)cc1)c1ccc2c(c1)c(-c1cccc(Cl)c1)cc(=O)n2C [Tipifarnib]
2uM
  fractional viability: 0.743
10uM
  fractional viability: 0.667

## Cc1cc(C#N)cc(C)c1Oc1nc(Nc2ccc(C#N)cc2)nc(N)c1Br [Etravirine (TMC125)]
2uM
  fractional viability: 0.831
10uM
  fractional viability: 0.472

## O=c1[nH]c(=O)n([C@H]2C[C@H](O)[C@@H](CO)O2)cc1C(F)(F)F [Trifluridine]
2uM
  fractional viability: 0.982
10uM
  fractional viability: 0.755

## CC(C)n1cnc2c(NCCc3ccc(O)cc3)nc(-c3csc4ccccc34)nc21 [StemRegenin 1 (SR1)]
2uM
  fractional viability: 1.1
10uM
  fractional viability: 0.769

## Cc1nc2c(O)cccc2c(=O)[nH]1
2uM
  fractional viability: 0.925
10uM
  fractional viability: 0.903

## O=C(NNc1ccccc1)c1ccncc1
2uM
  fractional viability: 0.769
10uM
  fractional viability: 0.792

## Cc1cccc(-c2[nH]ncc2-c2ccc3ncccc3n2)n1
2uM
  fractional viability: 1.13
10uM
  fractional viability: 1.48

## CN(Cc1ccc(C(C)(C)C)cc1)Cc1cccc2ccccc12 [Butenafine HCl]
2uM
  fractional viability: 1.01
10uM
  fractional viability: 0.817

## O=C(NCCCNc1nc(Nc2cccc(NC(=O)N3CCCC3)c2)ncc1I)c1cccs1
2uM
  fractional viability: 1.15
10uM
  fractional viability: 0.316

## S=c1[nH]cnc2nc[nH]c12 [Mercaptopurine (6-MP)]
2uM
  fractional viability: 1.23
10uM
  fractional viability: 1.03

## NS(=O)(=O)c1ccc(NC(=O)Nc2ccc(F)cc2)cc1
2uM
  fractional viability: 0.849
10uM
  fractional viability: 0.925

## O=C(c1ccc(F)cc1)N1CCC[C@H](c2nc(-c3ccc(F)cc3)no2)C1
2uM
  fractional viability: 1.05
10uM
  fractional viability: 0.824

## Cc1ccc(Cl)cc1N(CC(=O)Nc1c(F)cccc1F)S(C)(=O)=O
2uM
  fractional viability: 0.841
10uM
  fractional viability: 0.641

## O=C1Nc2ccc(I)cc2/C1=C/c1cc(Br)c(O)c(Br)c1
2uM
  fractional viability: 1.04
10uM
  fractional viability: 0.798

## O=C1N=C(O)NC1(c1ccccc1)c1ccccc1 [Phenytoin sodium]
2uM
  fractional viability: 1.01
10uM
  fractional viability: 0.969

## COc1cc(NS(=O)(=O)c2ccc(N)cc2)nc(OC)n1 [Sulphadimethoxine]
2uM
  fractional viability: 1.18
10uM
  fractional viability: 0.91

## CC1(C)O[C@@H]2[C@@H](CO[C@@]3(COS(N)(=O)=O)OC(C)(C)O[C@@H]23)O1 [Topiramate]
2uM
  fractional viability: 1.24
10uM
  fractional viability: 1.04

## CN(C)c1cc(NC(=O)CNC(C)(C)C)c(O)c2c1C[C@H]1C[C@H]3[C@H](N(C)C)C(O)=C(C(N)=O)C(=O)[C@@]3(O)C(O)=C1C2=O [Tigecycline]
2uM
  fractional viability: 1.1
10uM
  fractional viability: 0.751

## CCNc1nc(Nc2cc(F)c(C(=O)N3CCOCC3)cc2OC)ncc1C(F)(F)F
2uM
  fractional viability: 0.943
10uM
  fractional viability: 0.896

## CN(C)c1ccc(-c2nc3ncc(Cl)c(N4CCN(CC(=O)Nc5nccs5)CC4)c3[nH]2)cc1
2uM
  fractional viability: 1.11
10uM
  fractional viability: 0.621

## NC1=NCC2c3ccccc3Cc3ccccc3N12 (stereo not drawn) [Epinastine HCl]
2uM
  fractional viability: 0.96
10uM
  fractional viability: 0.832

## NC(=O)N1c2ccccc2CC(=O)c2ccccc21 [Oxcarbazepine]
2uM
  fractional viability: 1.04
10uM
  fractional viability: 0.689

## Cc1nc2ccc(NC(=O)Nc3ccnc4cccnc34)cc2o1
2uM
  fractional viability: 0.834
10uM
  fractional viability: 0.759

## Oc1nc(-c2ccc(C(F)(F)F)cc2)nc2c1CSCC2
2uM
  fractional viability: 1.13
10uM
  fractional viability: 0.683

## O=C(O)c1cc2cccc([N+](=O)[O-])c2[nH]1
2uM
  fractional viability: 0.884
10uM
  fractional viability: 0.819

## COc1ccc(CCc2nc3cc(-c4c(C)noc4C)ccc3n2C[C@H](C)N2CCOCC2)cc1Cl
2uM
  fractional viability: 0.813
10uM
  fractional viability: 0.639

## CNCc1ccc(-c2[nH]c3cc(F)cc4c3c2CCNC4=O)cc1
2uM
  fractional viability: 1.22
10uM
  fractional viability: 1.29

## CCCNC(C)C(=O)Nc1c(C)csc1C(=O)OC (stereo not drawn) [Articaine HCl]
2uM
  fractional viability: 0.957
10uM
  fractional viability: 0.937

## CCNC(=O)c1noc(-c2cc(C(C)C)c(O)cc2O)c1-c1ccc(CN2CCOCC2)cc1
2uM
  fractional viability: 0.627
10uM
  fractional viability: 0.642

## CC(=O)C1=C(O)C=C2Oc3c(C(C)=O)c(O)c(C)c(O)c3C2(C)C1=O (single isomer, unassigned; (+)) [(+)-Usniacin]
2uM
  fractional viability: 1.13
10uM
  fractional viability: 1

## COc1ccc2c(c1)C(=O)N(CCc1ccc(S(=O)(=O)NC(=O)NC3CCCCC3)cc1)C(=O)C2(C)C [Gliquidone]
2uM
  fractional viability: 1.14
10uM
  fractional viability: 0.966

## C=CCc1ccc(O)c(-c2cc(CC=C)ccc2O)c1 [Magnolol]
2uM
  fractional viability: 1.13
10uM
  fractional viability: 0.919

## NS(=O)(=O)Cc1noc2ccccc12 [Zonisamide]
2uM
  fractional viability: 1.33
10uM
  fractional viability: 0.841

## CC(=O)c1cc([N+](=O)[O-])c(Sc2ccc(F)cc2F)s1
2uM
  fractional viability: 0.985
10uM
  fractional viability: 0.596

## Cc1cn([C@H]2C[C@H](N=[N+]=[N-])[C@@H](CO)O2)c(=O)[nH]c1=O [Zidovudine]
2uM
  fractional viability: 0.84
10uM
  fractional viability: 0.905

## COc1ccc([C@@H]2Sc3ccccc3N(CCN(C)C)C(=O)[C@@H]2OC(C)=O)cc1 [Diltiazem HCl]
2uM
  fractional viability: 1.24
10uM
  fractional viability: 1.1

## Cc1ccc2nc(NCCN)c3ncc(C)n3c2c1
2uM
  fractional viability: 0.683
10uM
  fractional viability: 0.296

## Cc1c(NC(=O)OC[C@@H]2COCCN2)cn2ncnc(Nc3ccc4c(cnn4Cc4cccc(F)c4)c3)c12
2uM
  fractional viability: 1.3
10uM
  fractional viability: 0.847

## CC(C[N+](C)(C)C)OC(N)=O (stereo not drawn) [Bethanechol chloride]
2uM
  fractional viability: 0.991
10uM
  fractional viability: 0.946

## COc1ccc(C[C@H](NC(=O)[C@H](C)NC(=O)CN2CCOCC2)C(=O)N[C@@H](Cc2ccccc2)C(=O)[C@@]2(C)CO2)cc1
2uM
  fractional viability: 0.149
10uM
  fractional viability: 0.144

## CN1CCC(CNc2ccc3ncc(-c4cccc(OC(F)(F)F)c4)n3n2)CC1 [SGI-1776 free base]
2uM
  fractional viability: 0.888
10uM
  fractional viability: 0.107

## C[C@H](NC(=O)CCc1nc2ccccc2c(=O)[nH]1)c1ccccc1
2uM
  fractional viability: 0.861
10uM
  fractional viability: 0.876

## NCC(=O)CCC(=O)O [5-Aminolevulinic acid HCl]
2uM
  fractional viability: 0.939
10uM
  fractional viability: 0.911

## Cc1ccc(Sc2ccccc2N2CCNCC2)c(C)c1
2uM
  fractional viability: 0.813
10uM
  fractional viability: 0.131

## Cc1ccc(C)c(OCCCC(C)(C)C(=O)O)c1 [Gemfibrozil]
2uM
  fractional viability: 1.18
10uM
  fractional viability: 1.01

## O=C(O)C[C@H](O)C[C@H](O)/C=C/c1c(C2CC2)nc2ccccc2c1-c1ccc(F)cc1 [Pitavastatin Calcium]
2uM
  fractional viability: 0.812
10uM
  fractional viability: 0.564

## COc1cc2c(cc1OC)[C@@H]1Cc3ccc(OC)c(OC)c3CN1CC2 [Rotundine]
2uM
  fractional viability: 1.29
10uM
  fractional viability: 1.36

## O=C(CCCN1CCC(O)(c2ccc(Cl)cc2)CC1)c1ccc(F)cc1 [Haloperidol]
2uM
  fractional viability: 1.17
10uM
  fractional viability: 0.953

## CC1(C)[C@@H](O)CC[C@]2(C)[C@H]3C(=O)C=C4[C@@H]5C[C@@](C)(C(=O)O)CC[C@]5(C)CC[C@@]4(C)[C@]3(C)CC[C@@H]12 [Enoxolone]
2uM
  fractional viability: 1.11
10uM
  fractional viability: 1.07

## CC1(C)CC(=O)c2c(C(F)(F)F)nn(-c3ccc(C(N)=O)c(N[C@H]4CC[C@H](OC(=O)CN)CC4)c3)c2C1
2uM
  fractional viability: 1.1
10uM
  fractional viability: 1.08

## Oc1ccc(Cc2nc3c(Cc4ccccc4)nc(-c4ccc(O)cc4)cn3c2O)cc1 [Coelenterazine]
2uM
  fractional viability: 0.856
10uM
  fractional viability: 0.938

## C[C@H]1COC2(CCN(c3nc(=O)c4cc(C(F)(F)F)cc([N+](=O)[O-])c4s3)CC2)O1 (racemic) [BTZ043 Racemate]
2uM
  fractional viability: 1.08
10uM
  fractional viability: 0.876

## O=C(O)c1ccc(-n2nc(-c3ccccc3O)nc2-c2ccccc2O)cc1 [Deferasirox]
2uM
  fractional viability: 1.37
10uM
  fractional viability: 0.791

## O=C(NCc1cccc(O)c1)Nc1nc(-c2ccncc2)cs1
2uM
  fractional viability: 1.14
10uM
  fractional viability: 1.11

## COC(=O)CCc1ccc(OCC(O)CNC(C)C)cc1 (stereo not drawn) [Esmolol HCl]
2uM
  fractional viability: 0.995
10uM
  fractional viability: 0.895

## COc1c(C)c2c(c(O)c1C/C=C(\C)CCC(=O)OCCN1CCOCC1)C(=O)OC2 [Mycophenolate Mofetil]
2uM
  fractional viability: 0.91
10uM
  fractional viability: 0.648

## CN1C(C(=O)Nc2ccccn2)=C(O)c2ccccc2S1(=O)=O [Piroxicam]
2uM
  fractional viability: 1.05
10uM
  fractional viability: 1.27

## COCCOC(=O)C1=C(C)NC(C)=C(C(=O)OC(C)C)C1c1cccc([N+](=O)[O-])c1 (stereo not drawn) [Nimodipine]
2uM
  fractional viability: 0.965
10uM
  fractional viability: 1.04

## NCCS [Cysteamine HCl]
2uM
  fractional viability: 0.741
10uM
  fractional viability: 0.828

## COc1nc(C)cnc1NS(=O)(=O)c1cccnc1-c1ccc(-c2nnco2)cc1 [Zibotentan (ZD4054)]
2uM
  fractional viability: 1
10uM
  fractional viability: 0.979

## C/C(O)=C(\C#N)C(=O)Nc1ccc(C(F)(F)F)cc1 [Teriflunomide]
2uM
  fractional viability: 0.772
10uM
  fractional viability: 0.506

## Cn1cc(/C=C/C(=O)c2cccc(F)c2)cc1/C=C/C(=O)NO
2uM
  fractional viability: 1.08
10uM
  fractional viability: 0.705

## Nc1nccc2c1ncn2C1C=C(CO)C(O)C1O (stereo not drawn) [3-Deazaneplanocin A (DZNeP)]
2uM
  fractional viability: 0.802
10uM
  fractional viability: 0.723

## Cc1nc(N(C)C(=O)Cc2ccc(-c3ccccn3)cc2)sc1S(N)(=O)=O [Pritelivir (BAY 57-1293)]
2uM
  fractional viability: 0.924
10uM
  fractional viability: 0.791

## N[C@@H](CC(=O)N1CCn2c(nnc2C(F)(F)F)C1)Cc1cc(F)c(F)cc1F [Sitagliptin phosphate monohydrate]
2uM
  fractional viability: 1.11
10uM
  fractional viability: 1.09

## C[C@@H]1O[C@@H](O[C@H]2[C@H](Oc3cc(O)c4c(c3)O[C@H](c3ccc(O)cc3)CC4=O)O[C@H](CO)[C@@H](O)[C@@H]2O)[C@H](O)[C@H](O)[C@H]1O [Naringin]
2uM
  fractional viability: 1.06
10uM
  fractional viability: 0.828

## C[C@H](CCC(=O)O)[C@H]1CC[C@H]2[C@@H]3C[C@H](O)[C@@H]4C[C@H](O)CC[C@]4(C)[C@H]3CC[C@]12C [Hyodeoxycholic acid (HDCA)]
2uM
  fractional viability: 0.888
10uM
  fractional viability: 1.12

## N=C(N)c1ccc(N=NNc2ccc(C(=N)N)cc2)cc1 [Diminazene Aceturate]
2uM
  fractional viability: 0.879
10uM
  fractional viability: 0.912
